Reference: PubChem BioAssay AID624417 (National Center for Advancing Translational Sciences (NCATS), 2012)
Among all 410,000 compounds or so, about 6,400 (1.6%) were called active. The shares of active, inactive and inconclusive entries below differ from those in the screen. Calls come from the whole dose curve; as a rule, active = well fitted inhibition curve with a large enough effect; inconclusive = small, poorly fitted or top-dose-only effect; inactive = no such curve, though single readings can be large or run the other way. No potency is given beside an inconclusive call; the fits are too rough.
% is set by controls: 0 for no effect and ±100 for the full control effect; potency is the fitted concentration of half-maximal effect; tags give direction and shape of the fitted curve.
Note: nearly all actives have a fitted effect of over 55% in size.

What follows are compounds tested against Glucagon-like peptide 1 receptor (Homo sapiens) (UniProt P43220) (assay: qHTS of GLP-1 Receptor Inverse Agonists (Inhibition Mode)). Settings: HEK293 GLP-1R CRE-luciferase, luminescence, 24 h, GLP-1R form is constitutively active; activity change, negative = inhibition: at 38.3 µM (top of the series) unless noted.
UniProt P43220, sequence (P43220 whole entry, looked up): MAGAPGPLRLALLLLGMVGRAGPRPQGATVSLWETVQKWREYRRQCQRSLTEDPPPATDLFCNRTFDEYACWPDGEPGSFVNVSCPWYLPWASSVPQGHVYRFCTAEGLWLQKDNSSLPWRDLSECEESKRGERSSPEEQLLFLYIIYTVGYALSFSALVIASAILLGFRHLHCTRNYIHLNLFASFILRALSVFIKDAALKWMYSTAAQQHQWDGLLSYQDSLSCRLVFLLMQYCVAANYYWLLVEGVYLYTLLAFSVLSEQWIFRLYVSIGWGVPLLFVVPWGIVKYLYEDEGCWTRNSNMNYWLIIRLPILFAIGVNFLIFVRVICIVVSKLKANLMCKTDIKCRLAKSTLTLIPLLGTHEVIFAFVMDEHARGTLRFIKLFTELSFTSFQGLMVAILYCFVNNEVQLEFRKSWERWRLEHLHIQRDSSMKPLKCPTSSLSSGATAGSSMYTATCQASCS
Outline: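 Inverse agonists were sought by their lowering of basal cAMP reporter luciferase output in HEK293 cells stably carrying constitutively active human GLP-1R, after 24 h compound treatment.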
With COc1ccc(CC(N)c2csc(NC(=O)CCc3ccccc3)n2)cc1 (stereo not drawn) the Potency was inconclusive [inhibitor, single point]. In the case of CC(C)c1ccc(CNc2ccc3c(c2)ncn3C)cc1, the Potency is reported as inconclusive [inhibitor, single point]. Cc1cc(C)n(-c2ccc(C(=O)Nc3ccc(C)c(S(=O)(=O)N4CCOCC4)c3)cc2)n1 was tested, and the Potency was inconclusive [inhibitor, single point]. For CCC(C)c1ccccc1NC(=O)c1cc2cccc([N+](=O)[O-])c2[nH]1 (stereo not drawn), the Potency was inconclusive [inhibitor, single point]. With Cc1ccc(-c2csc3nc[nH]c(=S)c23)cc1C the Potency was inconclusive [inhibitor, partial curve, poor fit]. With Cc1oc2ncnc(N3CCCCC3)c2c1C(=O)NCC1CCN(Cc2cccc(F)c2)CC1 the Potency was inconclusive [inhibitor, partial curve, poor fit]. With Cc1ccc(C(=O)N2CCC3CC2c2cc(-c4ccc5c(c4)OCO5)ccc23)cc1 (stereo not drawn) the Potency was inconclusive [inhibitor, single point]. With CCOC(=O)c1[nH]c2ccccc2c1NC(=O)c1ccccc1F the Potency was inconclusive [inhibitor, single point]. With C=C(C)c1cccc(C(C)(C)NC(=O)Nc2nnc(C(C)C)s2)c1 the Potency was active: 10 µM. COc1ccc(/C(=N\Nc2ccccc2C(=O)O)c2ccccc2)cc1 was tested, and the Potency was inconclusive [inhibitor, partial curve, poor fit]. With O=C(N/N=C/c1ccc2c(c1)OCO2)c1ccc(NC(=O)c2ccccc2Cl)cc1 the Potency was inconclusive [inhibitor, partial curve]. With O=C1C2C3C=CC(C4CC34)C2C(=O)N1/N=C/c1ccc(-c2ccc(F)cc2[N+](=O)[O-])o1 (stereo not drawn) the Potency was inconclusive [inhibitor, partial curve]. For COc1ccc(CCNC(=S)NC(=O)c2ccc(Br)cc2)cc1OC, the Potency was inconclusive [inhibitor, single point]. C=CCn1c(COc2ccccc2F)nnc1SCC(=O)c1c[nH]c2ccccc12 was tested, and the Potency was inconclusive [inhibitor, partial curve, poor fit]. In the case of CCOC(=O)c1ccccc1NC(=O)CN1CCCN(Cc2cc(C)ccc2C)S1(=O)=O, the “activity change, negative = inhibition” value is reported as inactive: 12.3%. In the case of Cc1ccnc(NC(=S)N2CCN(c3cccc(C(F)(F)F)c3)CC2)c1, the Potency is reported as inconclusive [inhibitor, partial curve]. In the case of COc1ccc(OC)c(CCNC(=O)c2ccc3c(c2)c(C)c(C)n3Cc2ccccc2)c1, the Potency is reported as inconclusive [inhibitor, single point]. COc1cc(NC(=O)CN2C(=O)c3ccccc3Sc3ccc(C(=O)N4CCCC4)cc32)cc(OC)c1 was tested, and the “activity change, negative = inhibition” value was inactive: -3.1%. With CC(=O)c1ccccc1Oc1cc(NN2CCCCC2)c([N+](=O)[O-])cc1[N+](=O)[O-] the Potency was inconclusive [inhibitor, single point]. For Cc1ccc(NC(=O)N2CCSc3ccccc32)cc1, the Potency was inconclusive [inhibitor, single point]. With COc1ccccc1N(C)c1cc2c(c3c1ccn3C)C1CCC2C1 (stereo not drawn) the Potency was inconclusive [inhibitor, single point]. In the case of COc1ccc(CCNC(=O)C(=O)NCC2CCCN2S(=O)(=O)c2cccs2)cc1OC (stereo not drawn), the “activity change, negative = inhibition” value is reported as inactive: 12.1%. In the case of Cc1ccc(Cl)cc1NC(=O)COC(=O)CC(C)(C)CC1=NS(=O)(=O)c2ccccc2N1, the Potency is reported as inconclusive [inhibitor, partial curve]. In the case of Cc1ccc(-n2cccc2C(=S)N=P(N(C)C)(N(C)C)N(C)C)cc1, the Potency is reported as inconclusive [inhibitor, partial curve, poor fit]. In the case of O=C(Cc1ccccc1)Nc1ccc(C(=O)NCC2COc3ccccc3O2)cc1 (stereo not drawn), the Potency is reported as inconclusive [inhibitor, single point]. For COc1ccccc1CNC(=O)C(Cc1ccccc1)NC(=O)c1ccccc1 (stereo not drawn), the Potency was inconclusive [inhibitor, single point]. CC(C)(C)C(=O)O/N=C(\N)c1c(Cl)cccc1Cl was tested, and the “activity change, negative = inhibition” value was inactive: -5.11%. In the case of Cc1ccc(-n2nnc(-c3nc(-c4cccs4)no3)c2N)cc1C, the “activity change, negative = inhibition” value is reported as inactive: 2.67%. CC1CCCCC12NC(=O)N(CC(=O)OCc1cccc(F)c1)C2=O (stereo not drawn) was tested, and the Potency was inconclusive [inhibitor, partial curve, poor fit]. For CC1CCCCC1NC(=S)Nc1ccc(SC(F)F)cc1 (stereo not drawn), the Potency was inconclusive [inhibitor, full curve, poor fit]. With CCN1/C(=C2\C(=O)N(C)C(=S)N2c2ccccc2)C=Cc2ccccc21 the Potency was inconclusive [inhibitor, single point]. In the case of CC(C)Oc1ccc(C(=O)NC2=NCCS2)cc1, the Potency is reported as inconclusive [inhibitor, single point]. In the case of Cc1ccc(SCc2cn3ccccc3n2)cc1, the Potency is reported as inconclusive [inhibitor, single point]. For Clc1ccc2nc(COc3ccccc3)[nH]c2c1, the Potency was inconclusive [inhibitor, single point]. O=C(Nc1ccc(C(=O)OCc2cc(=O)n3c4c(sc3n2)CCCC4)cc1)c1ccc(F)cc1 was tested, and the “activity change, negative = inhibition” value was inactive: 1.14%. Cc1cc(C(=O)Nc2cccc(C)c2C)n(-c2ccccc2)n1 was tested, and the Potency was inconclusive [inhibitor, full curve, poor fit]. With Cc1cccc(OCC(=O)NCC(=O)N/N=C/c2cc(Br)cc(Br)c2O)c1 the Potency was inconclusive [inhibitor, partial curve]. With COC(=O)c1cc(=O)n(CCc2ccccc2)c(=Nc2ccc(F)cc2)s1 the Potency was inconclusive [inhibitor, partial curve, poor fit]. In the case of Cc1ccc(/C=C(\C#N)C(=O)NC(C)c2ccccc2)o1 (stereo not drawn), the Potency is reported as inconclusive [inhibitor, single point]. With CCc1cccc(C)c1NC(=O)CCS(=O)(=O)c1cc(Br)cc2c1N(C(=O)C1CC1)CC2 the “activity change, negative = inhibition” value was inactive: -11.6%. Cc1sc2ncnc(N3CCCCC3C)c2c1C (stereo not drawn) was tested, and the Potency was inconclusive [inhibitor, full curve, poor fit]. In the case of CCCc1nn2c(=O)cc(COC(=O)c3cccc(NC(=O)c4cccs4)c3)nc2s1, the “activity change, negative = inhibition” value is reported as inactive: 15.7%. With CCn1cc(C(c2ccccc2)C(C(C)=O)[N+](=O)[O-])c2ccccc21 (stereo not drawn) the Potency was inconclusive [inhibitor, partial curve, poor fit]. For COc1ccc(OCc2cc(C(=O)N3CCC(c4ccccc4)CC3)no2)c(Cl)c1, the Potency was inconclusive [inhibitor, partial curve, poor fit]. In the case of COc1ccc(C)cc1NC(=O)CSc1nnc(COc2ccc(Cl)cc2)n1Cc1ccco1, the Potency is reported as inconclusive [inhibitor, partial curve, poor fit]. CCOc1ccccc1CNc1ccc(N2CCOCC2)c(C(=O)O)c1 was tested, and the Potency was inconclusive [inhibitor, full curve, poor fit]. For COc1ccccc1N1CCN(C(=O)Nc2ccc(F)c(Cl)c2)CC1, the Potency was inconclusive [inhibitor, single point]. For C/C(Nc1ccc(Cl)c(Cl)c1)=C1/CCOC1=O, the Potency was inconclusive [inhibitor, single point]. For O=C(NC1CCCC1)c1nc(-c2ccco2)oc1-c1ccccc1, the Potency was inconclusive [inhibitor, single point]. In the case of CCC1CN(S(=O)(=O)c2cc(-c3cc(C)no3)ccc2C)c2cc(Cl)ccc2O1 (stereo not drawn), the “activity change, negative = inhibition” value is reported as inactive: 3.56%. In the case of O=C(NCc1ccccc1)C12CC3CC(CC(Cl)(C3)C1)C2, the Potency is reported as inconclusive [inhibitor, single point]. For CCCN(CC(=O)Nc1ccccc1OC)C(=O)CSc1ccc(Br)cc1C, the Potency was inconclusive [inhibitor, partial curve, poor fit]. In the case of Cc1ccc(S(=O)(=O)NCC(=O)NCC(=O)N(C)Cc2ccc(Br)s2)cc1C, the Potency is reported as inconclusive [inhibitor, single point]. COc1ccc(NC(=O)/C(C#N)=C\c2ccc(N3CCOCC3)o2)cc1 was tested, and the “activity change, negative = inhibition” value was inactive: 28.7%. In the case of O=C(NC(=S)Nc1ccc2c(c1)OCCO2)c1ccccc1, the Potency is reported as inconclusive [inhibitor, single point]. For CCCCC[C@H](O)/C=C/[C@H]1CCC(=O)[C@@H]1CCCCCCC(=O)N1CCCCC1CO (stereo partly drawn), the Potency was inconclusive [inhibitor, partial curve, poor fit]. Cc1cccc(NC(=O)C2CCCN(C(=O)Nc3ccc(F)cc3)C2)c1C (stereo not drawn) was tested, and the Potency was inconclusive [inhibitor, partial curve]. CC1CCN(CCCCOc2cccc(Br)c2)CC1 was tested, and the “activity change, negative = inhibition” value was inactive: -4.18%. With Cc1ccc(OCc2nc(C#N)c(N3CCN(Cc4ccccc4)CC3)o2)cc1 the Potency was inconclusive [inhibitor, single point]. For CCOc1cc(CNC(=O)Cn2c(=O)c3cccn3c3ccc(F)cc32)cc(OCC)c1OCC, the “activity change, negative = inhibition” value was inactive: -4.45%. Cc1ccccc1NC(=O)c1sc2nc3c(c(-c4ccco4)c2c1N)CCCC3 was tested, and the Potency was inconclusive [inhibitor, partial curve, poor fit]. CCN(Cc1ccccc1)c1cc2c(c3c1ccn3C)C1CCC2O1 (stereo not drawn) was tested, and the Potency was inconclusive [inhibitor, single point]. With CC(C)c1ccc(NC(=O)C2CCN(S(=O)(=O)c3cccc4nonc34)CC2)cc1 the Potency was inconclusive [inhibitor, single point].
